# According to PubChem BioAssay AID686979 (National Center for Advancing Translational Sciences (NCATS), 2013):
# Screen size: about 420,000 compounds; about 50,000 (12%) were called active. Inconclusive results, whose numbers are uncertain, are shown with a selection of clear calls. Calls follow the shape of the dose curve; as a rule, active = well fitted inhibition curve with a large enough effect; inconclusive = small, poorly fitted or top-dose-only effect; inactive = flat fitted curve, though single readings scatter. No potency is given beside an inconclusive call; the fits are too rough. Some compounds were tested as several samples or in several runs, with calls that do not always agree.
# Test: qHTS for Inhibitors of human tyrosyl-DNA phosphodiesterase 1 (TDP1): qHTS in cells in presence of CPT; also: nearly all actives have a fitted effect of over 55% in size
# Conditions: chicken DT40 Tdp1-/-;hTDP1 cells + 20 nM CPT, ATP luminescence, 48 h; activity change, negative = growth inhibition: at 46.2 µM (top of the series)
# How it was run: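 Chicken DT40 Tdp1-/- cells complemented with human TDP1, 400 cells/well, exposed to compounds plus 20 nM camptothecin for at least 48 h at 37 C; viability read as ATP content by CellTiter-Glo luminescence.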
# % is scaled to controls: 0 for no effect and ±100 for the full control effect; potency is read from the fitted curve at half-maximal effect; tags tell the direction and shape of the fitted curve.
Compound,Potency,"activity change, negative = growth inhibition"
Cc1cc(Nc2ccccc2Cl)c2ccccc2n1,active: 23.1 µM,
Cn1c(SCC(=O)N2CCOCC2)nnc1-c1ccco1,,inactive: -20.3%
Cn1nnnc1SCc1ccc(C(=O)Nc2ccccc2F)cc1,,inactive: -1.12%
CC(=O)OCC1OC(n2ccc(=O)[nH]c2=O)C(O)C1O (stereo unspecified),,inactive: 2.18%
O=C(O)CCC(=O)Nc1ccc(-c2nc3ccc(C(=O)c4ccccc4)cc3[nH]2)cc1,,inactive: 0.653%
O=C(Nc1ccc(-c2cn3cccnc3n2)cc1)c1ccccc1F,"inconclusive [inhibitor, single point]",
Cc1cccc(N2CCN(C(=O)CCNC(=O)Cn3ccc4ccccc4c3=O)CC2)c1C,"inconclusive [inhibitor, single point]",
CC(C)C1C(=O)N(Cc2cn(Cc3ccco3)nn2)CCS(=O)(=O)N1Cc1ccc(-c2cccc(N(C)C)c2)cc1 (stereo unspecified),"inconclusive [inhibitor, single point]",
Cc1c(NS(=O)(=O)c2ccc3nc(COc4ccccc4Cl)[nH]c3c2)c(=O)n(-c2ccccc2)n1C,,inconclusive: -34.8% [inhibitor]
Cc1cccc(OCCOC(=O)CN2C(=O)NC3(CCCC3)C2=O)c1,"inconclusive [inhibitor, single point]",
O=C(CN1C(=O)NC2(CCCCCC2)C1=O)N1CCC(Cc2ccccc2)CC1,"inconclusive [inhibitor, single point]",
Cc1ccc(Cn2cc(CN3CC(N4CCCC4)CS3(=O)=O)nn2)cc1 (stereo unspecified),,inactive: -1.95%
Cc1ccc(-c2nc(=N)sn2Cc2ccccc2)cc1,active: 4.47 µM,
CC(=O)c1c(C)[nH]c(C(=O)CSc2ncnc3sc(-c4ccccc4)cc23)c1C,active: 9.2 µM,
CC12CN3CC(C)(CN(C1)C3c1ccc(Cl)cc1Cl)C2O (stereo unspecified),"inconclusive [inhibitor, single point]",
COc1ccccc1NC(=O)Cn1c(=O)n(CCc2ccccc2)c(=O)c2sc3ccccc3c21,,inactive: -27.6%
O=C(CSc1nnnn1Cc1ccccc1)Nc1ccccc1,,inactive: -18.3%
CN(CCC#N)C(=O)COC(=O)c1c2c(nc3ccccc13)/C(=C\c1ccco1)CC2,active: 20.6 µM,
CC1=C(C(=O)Nc2cccc(Cl)c2)C2(CCCCCC2)OC1=O,"inconclusive [inhibitor, single point]",
O=C1C=CC2=C3c4cc(O)c(O)cc4CC3(O)COC2=C1O (stereo unspecified),active: 16.4 µM,
O=C(Nc1ccncc1)c1ccc(Cl)c([N+](=O)[O-])c1,active: 11.6 µM,
CN(C)c1ccc(CNC(=O)Cn2c(=O)oc3cc(S(=O)(=O)NCc4ccccc4)ccc32)cc1,"inconclusive [inhibitor, single point]",
CC(C)C[C@@H]1O[C@H](CCc2ccccc2)Cc2[nH][nH]c(=O)c21,"inconclusive [inhibitor, single point]",

Compound,Potency,"activity change, negative = growth inhibition"
Cc1cccc(-c2noc(CCC(=O)Nc3ccccc3)n2)c1,"inconclusive [inhibitor, single point]",
Cc1ccc(NC(=O)CSc2nccn2Cc2ccco2)cc1,,inactive: -7.12%
O=C(O)COc1ccc(/C=N/n2c(COc3ccccc3)nc3ccccc3c2=O)cc1,,inactive: -24.2%
CCC1CN(C(=O)N2CCC(C(=O)NCCCc3ccccc3)CC2)c2ccccc2O1 (stereo unspecified),active: 16.4 µM,
CCN1CCN(c2cc(C)c3cc(NC(=O)c4cc(Br)ccc4Cl)ccc3n2)CC1,"inconclusive [inhibitor, single point]",
CCCC12CN3CC(C)(CN(C1)C3c1cn(CC)c3ccccc13)C2=O (stereo unspecified),"inconclusive [inhibitor, single point]",
CC(C)c1ccc([C@@H]2O[C@H](CCc3ccccc3)CC3=C2C(=O)OC(C)(C)O3)cc1,"inconclusive [inhibitor, single point]",
N#C/C(=C/c1ccc(O)cc1)C(=O)NCc1ccc(Cl)cc1,,inactive: 9.71%
CCOC(=O)[C@@H]1[C@H]2COc3ccc(Br)cc3[C@@H]2N2C(=O)N(c3ccc(C)cc3)C(=O)[C@@]12C,"inconclusive [inhibitor, partial curve]",
Cc1ccc(NC(=O)COC(=O)c2sccc2C)cc1S(=O)(=O)N1CCOCC1,"inconclusive [inhibitor, single point]",
COc1cccc(C(=O)Nc2cccc(-c3nnc(-c4ccccc4)o3)c2)c1,"inconclusive [inhibitor, single point]",
O=C1c2ccccc2CCC12N=NCC2c1ccc(Cl)cc1 (stereo unspecified),,inactive: -0.515%
CCN1/C(=C/c2ccc3cc(C)ccc3[n+]2C)Sc2ccc3sccc3c21,active: 0.411 µM,
Cc1nc(SCC(=O)N2CCCc3ccccc32)c2oc3ccccc3c2n1,active: 16.4 µM,
CC(=O)N1CCCc2cc(S(=O)(=O)N3CCC(C(=O)NCc4ccccc4Cl)CC3)ccc21,"inconclusive [inhibitor, single point]",
CC(=O)c1cc2c(cc1NC(=O)C1CN(C(C)=O)c3ccccc3O1)OCO2 (stereo unspecified),active: 14.6 µM,
O=C(CN(c1ccccc1)S(=O)(=O)c1ccccc1)Nc1ccccc1C(=O)NCc1ccco1,"inconclusive [inhibitor, single point]",
COc1ccc(CNC(=O)C2CCN(S(=O)(=O)c3ccc(Br)s3)CC2)cc1,,inactive: -13.2%
O=S(=O)(c1ccc(C2CCCCC2)cc1)N1CCCC1,"inconclusive [inhibitor, single point]",
CCC(=O)N1c2ccccc2CC1C(=O)NCCN1CCN(c2cccc(Cl)c2)CC1 (stereo unspecified),active: 23.1 µM,
COc1cc(-c2nc3n(n2)C(c2ccc(F)cc2)C2=C(CCCC2=O)N3)cc(OC)c1OC (stereo unspecified),"inconclusive [inhibitor, single point]",
CCOC(=O)c1c(C)[nH]c(CCC(=O)Nc2ccccc2OCC)c1C,"inconclusive [inhibitor, single point]",
COc1ccc2oc(=O)cc(CN3CCN(c4ccccc4OC)CC3)c2c1,"inconclusive [inhibitor, single point]",
